# In the supplement of paper PMC8728848:
# Some of the results follow.
# B1: TbCVNHOa (Tuber borchii), Q5MK11 (protein)
# chain: GSHIGPYMSYADSSRNAVLTNGGRTLRAECRNADGNWVTSELDLDTCIGNPNGFLGWGMQNFSHSSEDIKLEEGGRKLTCRPKTVDGGFRERQGIDLNRIQNVNGRLVFQ
# Columns and labels:
# Assay in all cases: glycan array binding signal (z-score within array); higher = stronger binding
# Conditions in all cases: glycan notation: IUPAC condensed, linker removed
# [1] = target: Neu5Ac(a2-3)Gal(b1-4)GlcNAc6S
# Method in brief: (§1)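 From the Consortium for Functional Glycomics database, 3228 arrays were curated, keeping only those whose protein sequence was available. Binding is given as a within-array Z-score averaged across arrays sharing a protein sequence and across linkers. Negative Z-scores can be read as non-binding.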
# [2] = target: Neu5Ac(a2-3)Gal(b1-4)[Fuc(a1-3)]GlcNAc
# Method in brief: as §1
# [3] = target: Neu5Ac(a2-3)Gal(b1-4)[Fuc(a1-3)]GlcNAc(b1-3)Gal
# Method in brief: as §1
# [4] = target: Neu5Ac(a2-3)Gal(b1-4)[Fuc(a1-3)]GlcNAc(b1-3)Gal(b1-4)GlcNAc
# Method in brief: as §1
# [5] = target: Neu5Ac(a2-3)Gal(b1-4)[Fuc(a1-3)]GlcNAc(b1-3)Gal(b1-4)[Fuc(a1-3)]GlcNAc(b1-3)Gal(b1-4)[Fuc(a1-3)]GlcNAc
# Method in brief: as §1
# [6] = target: Neu5Ac(a2-3)Gal(b1-4)[Fuc(a1-3)]GlcNAc6S
# Method in brief: as §1
# [7] = target: Neu5Ac(a2-3)Gal6S(b1-4)GlcNAc
# Method in brief: as §1
# [8] = target: Neu5Ac(a2-3)Gal6S(b1-4)[Fuc(a1-3)]GlcNAc
# Method in brief: as §1
# [9] = target: Neu5Ac(a2-3)GalNAc
# Method in brief: as §1
# [10] = target: Neu5Ac(a2-3)GalNAc(b1-4)GlcNAc
# Method in brief: as §1
# [11] = target: Neu5Ac(a2-3)[GalNAc(b1-4)]Gal(b1-4)Glc
# Method in brief: as §1
# [12] = target: Neu5Ac(a2-3)[GalNAc(b1-4)]Gal(b1-4)GlcNAc
# Method in brief: as §1
# [13] = target: Neu5Ac(a2-3)[Neu5Ac(a2-6)]GalNAc
# Method in brief: as §1
# [14] = target: Neu5Ac(a2-6)Gal(b1-4)GlcNAc
# Method in brief: as §1
# [15] = target: Neu5Ac(a2-6)Gal(b1-4)GlcNAc(b1-2)Man(a1-3)[Neu5Ac(a2-6)Gal(b1-4)GlcNAc(b1-2)Man(a1-6)]Man(b1-4)GlcNAc(b1-4)GlcNAc
# Method in brief: as §1
# [16] = target: Neu5Ac(a2-6)Gal(b1-4)GlcNAc(b1-3)Gal(b1-4)GlcNAc
# Method in brief: as §1
# [17] = target: Neu5Ac(a2-6)Gal(b1-4)GlcNAc(b1-3)Gal(b1-4)[Fuc(a1-3)]GlcNAc(b1-3)Gal(b1-4)[Fuc(a1-3)]GlcNAc
# Method in brief: as §1
# [18] = target: Neu5Ac(a2-6)Gal(b1-4)GlcNAc6S
# Method in brief: as §1
# [19] = target: Neu5Ac(a2-6)GalNAc
# Method in brief: as §1
# [20] = target: Neu5Ac(a2-6)GalNAc(b1-4)GlcNAc
# Method in brief: as §1
# [21] = target: Neu5Ac(a2-8)Neu5Ac
# Method in brief: as §1
# [22] = target: Neu5Ac(a2-8)Neu5Ac(a2-3)Gal(b1-4)Glc
# Method in brief: as §1
# [23] = target: Neu5Ac(a2-8)Neu5Ac(a2-3)[GalNAc(b1-4)]Gal(b1-4)Glc
# Method in brief: as §1
# [24] = target: Neu5Ac(a2-8)Neu5Ac(a2-8)Neu5Ac
# Method in brief: as §1
# [25] = target: Neu5Ac(a2-8)Neu5Ac(a2-8)Neu5Ac(a2-3)Gal(b1-4)Glc
# Method in brief: as §1
# [26] = target: Neu5Ac(a2-8)Neu5Ac(a2-8)Neu5Ac(a2-3)[GalNAc(b1-4)]Gal(b1-4)Glc
# Method in brief: as §1
# [27] = target: Neu5Ac(a2-8)Neu5Ac(a2-8)Neu5Ac(a2-8)Neu5Ac(a2-3)[GalNAc(b1-4)]Gal(b1-4)Glc
# Method in brief: as §1
# [28] = target: Neu5Ac9Ac(a2-6)Gal(b1-4)GlcNAc
# Method in brief: as §1
# [29] = target: Neu5Gc(a2-3)Gal(b1-3)GlcNAc
# Method in brief: as §1
# [30] = target: Neu5Gc(a2-3)Gal(b1-3)[Fuc(a1-4)]GlcNAc
# Method in brief: as §1
# [31] = target: Neu5Gc(a2-3)Gal(b1-4)Glc
# Method in brief: as §1
# [32] = target: Neu5Gc(a2-3)Gal(b1-4)GlcNAc
# Method in brief: as §1
# [33] = target: Neu5Gc(a2-3)Gal(b1-4)[Fuc(a1-4)]GlcNAc
# Method in brief: as §1
# [34] = target: Neu5Gc(a2-6)Gal(b1-4)GlcNAc
# Method in brief: as §1
# [35] = target: Neu5Gc(a2-6)GalNAc
# Method in brief: as §1
binder,measurement,setting,value
B1,glycan array binding signal (z-score),[1],-0.236
same,glycan array binding signal (z-score),[2],-0.284
same,glycan array binding signal (z-score),[3],-0.258
same,glycan array binding signal (z-score),[4],-0.137
same,glycan array binding signal (z-score),[5],-0.257
same,glycan array binding signal (z-score),[6],-0.196
same,glycan array binding signal (z-score),[7],-0.038
same,glycan array binding signal (z-score),[8],-0.031
same,glycan array binding signal (z-score),[9],-0.207
same,glycan array binding signal (z-score),[10],-0.279
same,glycan array binding signal (z-score),[11],-0.284
same,glycan array binding signal (z-score),[12],-0.245
same,glycan array binding signal (z-score),[13],-0.295
same,glycan array binding signal (z-score),[14],-0.287
same,glycan array binding signal (z-score),[15],-0.258
same,glycan array binding signal (z-score),[16],-0.323
same,glycan array binding signal (z-score),[17],-0.242
same,glycan array binding signal (z-score),[18],-0.286
same,glycan array binding signal (z-score),[19],-0.284
same,glycan array binding signal (z-score),[20],-0.262
same,glycan array binding signal (z-score),[21],-0.264
same,glycan array binding signal (z-score),[22],-0.285
same,glycan array binding signal (z-score),[23],-0.298
same,glycan array binding signal (z-score),[24],-0.231
same,glycan array binding signal (z-score),[25],-0.202
same,glycan array binding signal (z-score),[26],-0.278
same,glycan array binding signal (z-score),[27],-0.285
same,glycan array binding signal (z-score),[28],-0.231
same,glycan array binding signal (z-score),[29],-0.288
same,glycan array binding signal (z-score),[30],-0.288
same,glycan array binding signal (z-score),[31],-0.244
same,glycan array binding signal (z-score),[32],-0.209
same,glycan array binding signal (z-score),[33],-0.23
same,glycan array binding signal (z-score),[34],-0.306
same,glycan array binding signal (z-score),[35],-0.232
